Among the data in the supplement of paper PMC4967469 are AUC and IC50 values, retold here.

By IC50 is meant the dose at which the fit gives 50% viability; where the fit passes the top or lowest dose, that dose stands as a limit. AUC sums up the same curve from the lowest dose to the 256-fold higher top dose; it is 1 without any effect and falls as sensitivity rises. For part of these data: Where the top dose is marked as inferred, it was calculated from the reported fits. For part of these data: Drugs with an entry number were screened twice under separate entries, and the two screens often disagree.

Assay in all cases: Viability of human cancer cell lines after 72 h of drug (GDSC screen)
Compound in one assay: CC(C)C[C@@H](C=O)NC(=O)[C@H](CC(C)C)NC(=O)[C@H](CC(C)C)NC(=O)OCc1ccccc1 [MG-132]
As to conditions: top dose 1 µM. On the procedure:
(§1)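 Human cancer cell lines in 384-well plates, medium with 10% serum, drug for 72 h over a 256-fold dose range (nine 2-fold or five 4-fold steps up to the top dose). Adherent lines were fixed and stained with the nucleic acid dye Syto60, suspension lines read with resazurin; signal relative to control wells, capped at 0 and 100%. One two-parameter sigmoid per drug and line, fitted in a mixed model over all curves with the slope shared within a line.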

Compound in another assay: CS(=O)(=O)N1CCN(Cc2cc3nc(-c4cccc5[nH]ncc45)nc(N4CCOCC4)c3s2)CC1 [GDC0941]
As to conditions: top dose 4 µM; screen: GDSC drug entry 1527; top dose inferred. On the procedure:
as §1

Compound in a further assay: CC(C)[C@H](C(=O)Nc1ccc(C(=O)NO)cc1)c1ccccc1 [AR-42]
To be noted: top dose 5.12 µM; top dose inferred. As to the method: as §1

Compound in a further assay: C[C@]12O[C@H](C[C@]1(O)CO)n1c3ccccc3c3c4c(c5c6ccccc6n2c5c31)CNC4=O [CEP-701]
To be noted: top dose 2 µM; top dose inferred. On the procedure:
as §1

Compound in a further assay: CCN(CC)CCNC(=O)c1c(C)[nH]c(/C=C2\C(=O)Nc3ccc(F)cc32)c1C [Sunitinib]
To be noted: top dose 8 µM. As to the method:
as §1

Compound in a further assay: Cn1cc(C2=C(c3ccc(Cl)cc3Cl)C(=O)NC2=O)c2ccccc21 [SB 216763]
To be noted: top dose 10 µM; top dose inferred. On the procedure: as §1

Compound in the next assay: Cc1ccc(Nc2nccc(N(C)c3ccc4c(C)n(C)nc4c3)n2)cc1S(N)(=O)=O [Pazopanib]
As to conditions: top dose 8 µM. On the procedure:
as §1

Broadly, the IC50 is the concentration that inhibits the measured activity by half. Consider “BE-13 (lymphoblastic leukaemia, suspension)”, for which the AUC with MG-132 was determined as 0.987; in the assay with GDC0941 it was 0.94; with AR-42 it was 0.233; in the assay with CEP-701, 0.563; with Sunitinib it was 0.798; with SB 216763, 0.932. Further, the AUC with Pazopanib was 0.957. The IC50 in the assay with MG-132 is > 1000 nM; with GDC0941, > 4000 nM; with AR-42, 57.6 nM; with CEP-701, 183 nM; with Sunitinib, 3530 nM; with SB 216763 it was > 10000 nM. For the same cell line, the 50% inhibitory concentration (IC50) with Pazopanib was > 8000 nM.

Turning to BL-41 (Burkitt lymphoma, suspension), the AUC with MG-132 is 0.531; with GDC0941 it was 0.88; with AR-42, 0.277; in the assay with CEP-701 it was 0.485; with Sunitinib it was 0.746; with SB 216763 it was 0.922. In the assay with Pazopanib, the AUC is 0.947. The IC50 worked out at 74.4 nM with MG-132; 2510 nM with GDC0941; 89.8 nM with AR-42; 115 nM in the assay with CEP-701; 2040 nM with Sunitinib; 9090 nM with SB 216763. Moreover, the IC50 with Pazopanib was > 8000 nM.

As for CA46 (Burkitt lymphoma, suspension), the AUC with MG-132 came to 0.959; in the assay with GDC0941, 0.59; in the assay with AR-42, 0.163; in the assay with CEP-701, 0.887; with Sunitinib, 0.88; in the assay with SB 216763, 0.983. Besides, the AUC in the assay with Pazopanib is 0.896. For the same cell line, the IC50 was > 1000 nM with MG-132; 450 nM in the assay with GDC0941; 27.1 nM with AR-42; > 2000 nM with CEP-701; > 8000 nM in the assay with Sunitinib; > 10000 nM with SB 216763. In the assay with Pazopanib, the IC50 is > 8000 nM.

As to CAS-1 (glioma, adherent), the AUC with MG-132 came out at 0.583; with GDC0941 it was 0.782; in the assay with AR-42 it was 0.673; with CEP-701 it was 0.839; with Sunitinib, 0.97; with SB 216763 it was 0.978. Also, in the assay with Pazopanib, the AUC was determined as 0.807. For the same cell line, the IC50 was 115 nM with MG-132; 2350 nM in the assay with GDC0941; 1160 nM with AR-42; > 2000 nM with CEP-701; > 8000 nM with Sunitinib; > 10000 nM in the assay with SB 216763. For the same cell line, the IC50 with Pazopanib was found to be 6050 nM.

Consider CGTH-W-1 (thyroid, adherent), for which the AUC with MG-132 came out at 0.899; in the assay with AR-42 it was 0.657; in the assay with CEP-701, 0.451; in the assay with Sunitinib it was 0.21; with SB 216763, 0.964; with Pazopanib it was 0.255. For the same cell line, the IC50 is > 1000 nM with MG-132; 873 nM with AR-42; 91.9 nM with CEP-701; 70.8 nM with Sunitinib; > 10000 nM in the assay with SB 216763; 99.5 nM with Pazopanib.

For the cell line “COR-L88 (small cell lung carcinoma, adherent)”, the AUC with MG-132 was determined as 0.955; with GDC0941 it was 0.944; in the assay with CEP-701, 0.928; in the assay with Sunitinib it was 0.907; with SB 216763 it was 0.986; with Pazopanib, 0.89. The IC50 with MG-132 was > 1000 nM; with GDC0941, > 4000 nM; in the assay with CEP-701 it was > 2000 nM; with Sunitinib, > 8000 nM; in the assay with SB 216763 it was > 10000 nM; with Pazopanib, > 8000 nM.

For the cell line DJM-1 (skin, adherent), the AUC with MG-132 came out at 0.784; in the assay with AR-42 it was 0.976; in the assay with CEP-701, 0.742; in the assay with Sunitinib it was 0.97; with SB 216763, 0.974; in the assay with Pazopanib it was 0.952. Further, the 50% inhibitory concentration (IC50) in the assay with MG-132 is 420 nM; with AR-42 it was > 5120 nM; with CEP-701, 613 nM; in the assay with Sunitinib, > 8000 nM; in the assay with SB 216763, > 10000 nM; in the assay with Pazopanib it was > 8000 nM.

For the cell line DOHH-2 (B-cell lymphoma, suspension), the AUC with MG-132 amounted to 0.984; with CEP-701, 0.598; in the assay with Sunitinib it was 0.7; with SB 216763, 0.951; with Pazopanib, 0.966. In addition, the IC50 is > 1000 nM with MG-132; 231 nM in the assay with CEP-701; 1800 nM with Sunitinib; > 10000 nM with SB 216763; > 8000 nM in the assay with Pazopanib.

Take DU-4475 (breast, suspension): the AUC came to 0.655 in the assay with MG-132; 0.399 with AR-42; 0.571 with CEP-701; 0.8 with Sunitinib; 0.992 with SB 216763; 0.984 with Pazopanib. Besides, the IC50 with MG-132 is 154 nM; with AR-42 it was 178 nM; with Sunitinib, 3060 nM; with SB 216763 it was > 10000 nM; with Pazopanib it was > 8000 nM.

On to GA-10 (Burkitt lymphoma, suspension), for which the AUC with MG-132 was 0.747; with GDC0941, 0.54; with CEP-701, 0.45; with Sunitinib, 0.529; with SB 216763 it was 0.991. In addition, the IC50 is 277 nM in the assay with MG-132; 315 nM in the assay with GDC0941; 93.5 nM with CEP-701; 593 nM with Sunitinib; > 10000 nM with SB 216763.

Consider GI-1 (glioma, adherent), for which the AUC with MG-132 was determined as 0.786; in the assay with GDC0941, 0.69; with AR-42, 0.45; in the assay with Sunitinib it was 0.847; with SB 216763 it was 0.982; in the assay with Pazopanib, 0.629. Further, the IC50 with MG-132 was 412 nM; with GDC0941 it was 830 nM; with AR-42, 235 nM; with Sunitinib, 5530 nM; in the assay with SB 216763, > 10000 nM; in the assay with Pazopanib it was 1110 nM.
